Not every detail of the peptide structures is certain; ends, links or a residue may be inferred. Square brackets hold non-standard residues; d marks the D form. Peptide text beside a SMILES is read from it. * marks the point of attachment. dCha = N[C@H](CC1CCCCC1)C(=O)O; pNA = O=[N+]([O-])c1ccc(N*)cc1; AMC = Cc1cc(=O)oc2cc(N*)ccc12; dNle = CCCC[C@@H](N)C(=O)O; 4Abz = Nc1ccc(C(=O)O)cc1; βNA = c1ccc2cc(N*)ccc2c1; Cbz = O=C(OCc1ccccc1)*; Bn = c1ccc(C*)cc1; Ms = CS(=O)(=O)*; tBu = CC(C)(C)*; Moc = COC(=O)*
target: T1, human factor Xa (Homo sapiens, UniProt P00742); test: Activity of factor Xa obtained by RVV activation of factor X in normal human blood plasma on substrate (split product H-R5 released); assay type: biochemical; settings: substrate concentration 2 × 10^-4; TRIS-imidazole buffer pH 8.4, ionic strength 0.3, 37° C.; citrated plasma activated with Russel viper venom 75 seconds; value calculated for 1 ml of citrated plasma
T1 construct: from tissue
T1 sequence (P00742 235-488 limits assumed): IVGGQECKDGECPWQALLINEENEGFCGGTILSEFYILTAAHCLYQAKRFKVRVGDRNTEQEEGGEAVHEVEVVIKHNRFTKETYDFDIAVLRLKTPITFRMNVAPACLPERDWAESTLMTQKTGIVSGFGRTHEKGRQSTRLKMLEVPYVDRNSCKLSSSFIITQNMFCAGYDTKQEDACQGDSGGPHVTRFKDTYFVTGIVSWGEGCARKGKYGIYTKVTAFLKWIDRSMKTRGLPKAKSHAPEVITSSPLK
T1 sequence (P00742 41-179 partner limits assumed): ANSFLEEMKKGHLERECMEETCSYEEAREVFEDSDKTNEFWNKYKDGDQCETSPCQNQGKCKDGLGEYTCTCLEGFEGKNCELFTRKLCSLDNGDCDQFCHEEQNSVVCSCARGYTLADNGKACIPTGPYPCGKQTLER
Procedure: The values of the factor Xa activity given in Table 4 were determined experimentally in the manner described hereinafter:
For determining the activity of human factor Xa 0.01 ml of normal citrated plasma was mixed with 0.20 ml of a solution of Russel viper venom in TRIS-imidazole buffer having a pH of 8.4 and an ionic strength of 0.3 and containing 15 mmoles of CaCl2 […]. The mixture was incubated for 75 seconds at 37° C. in order to activate factor X present in the plasma and convert it completely into factor Xa. To the incubate there was added first 1.40 ml of TRIS-imidazole buffer (pH 8.4, ionic strength 0.3) heated to 37° C. and then 0.40 ml of a 2×10^-3 M aqueous solution of a substrate of the invention. Thereafter, the quantity of split produce H--R^5 in nanomoles released per minute was determined, and the corresponding value for 1 ml of citrated plasma was calculated.

SMILES	Activity of factor Xa as obtained by activation of factor X in 1 ml of normal human blood plasma by means of RVV, expressed in nanomoles of split product H--R^5 released per minute
COC(=O)N[C@H](CC1CCCCC1)C(=O)NCC(=O)N[C@@H](CCCNC(=N)N)C(=O)Nc1ccc([N+](=O)[O-])cc1 [Example 59, CH3 O--CO--D-CHA--Gly--Arg--pNA.AcOH] (Moc-[dCha]-Gly-Arg-pNA)	1260 nanomoles of split product H--
CCOC(=O)N[C@H](CC1CCCCC1)C(=O)NCC(=O)N[C@@H](CCCNC(=N)N)C(=O)Nc1ccc([N+](=O)[O-])cc1 [Example 60, C 2 H5 O--CO--D-CHA--Gly--Arg--pNA.AcOH]	1420 nanomoles of split product H--
CS(=O)(=O)N[C@H](CC1CCCCC1)C(=O)NCC(=O)N[C@@H](CCCNC(=N)N)C(=O)Nc1ccc([N+](=O)[O-])cc1 [Example 61, CH3 SO2 --D-CHA--Gly--Arg--pNA.AcOH] (Ms-[dCha]-Gly-Arg-pNA)	1770 nanomoles of split product H--
CC(C)C[C@@H](NC(=O)OCc1ccccc1)C(=O)NCC(=O)N[C@@H](CCCNC(=N)N)C(=O)Nc1ccc2ccccc2c1 [Example 62, Cbo--D-Leu--Gly--Arg--2-NA.HBr] (Cbz-[dL]-Gly-Arg-βNA)	995 nanomoles of split product H--
COC(=O)N[C@H](CC(C)C)C(=O)NCC(=O)N[C@@H](CCCNC(=N)N)C(=O)Nc1ccc2ccccc2c1 [Example 63, CH3 O--CO--D-Leu--Gly--Arg--2-NA.AcOH] (Moc-[dL]-Gly-Arg-βNA)	1065 nanomoles of split product H--
CC(C)C[C@@H](NS(C)(=O)=O)C(=O)NCC(=O)N[C@@H](CCCNC(=N)N)C(=O)Nc1ccc2ccccc2c1 [Example 64, CH3 SO2 --D-Leu--Gly--Arg--2-NA.AcOH] (Ms-[dL]-Gly-Arg-βNA)	985 nanomoles of split product H--
COc1cc(NC(=O)[C@H](CCCNC(=N)N)NC(=O)CNC(=O)[C@@H](CC(C)C)NC(=O)OCc2ccccc2)cc2ccccc12 [Example 65, Cbo--D-Leu--Gly--Arg--4-MeO--2-NA.HBr]	1025 nanomoles of split product H--
COC(=O)N[C@H](CC(C)C)C(=O)NCC(=O)N[C@@H](CCCNC(=N)N)C(=O)Nc1cc(OC)c2ccccc2c1 [Example 66, CH3 O--CO--D-Leu--Gly--Arg--4-MeO--2-NA.AcOH]	965 nanomoles of split product H--
COc1cc(NC(=O)[C@H](CCCNC(=N)N)NC(=O)CNC(=O)[C@@H](CC(C)C)NS(C)(=O)=O)cc2ccccc12 [Example 67, CH3 SO2 --D-Leu--Gly--Arg--4-MeO--2-NA.AcOH]	1005 nanomoles of split product H--
COC(=O)N[C@H](CC(C)C)C(=O)NCC(=O)N[C@@H](CCCNC(=N)N)C(=O)Nc1ccc2c(C)cc(=O)oc2c1 [Example 70, CH3 O--CO--D-Leu--Gly--Arg--MCA.AcOH] (Moc-[dL]-Gly-Arg-{AMC})	795 nanomoles of split product H--
Cc1cc(=O)oc2cc(NC(=O)[C@H](CCCNC(=N)N)NC(=O)CNC(=O)[C@@H](CC(C)C)NS(C)(=O)=O)ccc12 [Example 71, CH3 SO2 --D-Leu--Gly--Arg--MCA.AcOH] (Ms-[dL]-Gly-Arg-{AMC})	810 nanomoles of split product H--
CC(C)C[C@@H](NC(=O)OCc1ccccc1)C(=O)NCC(=O)N[C@@H](CCCNC(=N)N)C(=O)Nc1cccc2c([N+](=O)[O-])cccc12 [Example 72, Cbo--D-Leu--Gly--Arg--5-NO2 --1-NA.HBr]	830 nanomoles of split product H--
CC(C)C[C@@H](NS(C)(=O)=O)C(=O)NCC(=O)N[C@@H](CCCNC(=N)N)C(=O)Nc1cccc2c([N+](=O)[O-])cccc12 [Example 73, CH3 SO2 --D-Leu--Gly--Arg--5-NO2 --1-NA.AcOH]	875 nanomoles of split product H--
CC(C)C[C@@H](NC(=O)OCc1ccccc1)C(=O)NCC(=O)N[C@@H](CCCNC(=N)N)C(=O)Nc1cccc2ncccc12 [Example 74, Cbo--D-Leu--Gly--Arg--5-ChA.HBr]	660 nanomoles of split product H--
CC(C)C[C@@H](NS(C)(=O)=O)C(=O)NCC(=O)N[C@@H](CCCNC(=N)N)C(=O)Nc1cccc2ncccc12 [Example 75, CH3 SO2 --D-Leu--Gly--Arg--5-ChA.AcOH]	745 nanomoles of split product H--
CC(C)C[C@@H](NC(=O)OCc1ccccc1)C(=O)NCC(=O)N[C@@H](CCCNC(=N)N)C(=O)Nc1ccc([N+](=O)[O-])c2ncccc12 [Example 76, Cbo--D-Leu--Gly--Arg--8-NO2 --5-ChA.HBr]	715 nanomoles of split product H--
CC(C)C[C@@H](NS(C)(=O)=O)C(=O)NCC(=O)N[C@@H](CCCNC(=N)N)C(=O)Nc1ccc([N+](=O)[O-])c2ncccc12 [Example 77, CH3 SO2 --D-Leu--Gly--Arg--8-NO2 --5-ChA.AcOH]	735 nanomoles of split product H--
CCCCN(CC(=O)N[C@@H](CCCNC(=N)N)C(=O)Nc1ccc([N+](=O)[O-])cc1)C(=O)[C@@H](CCC)NC(=O)OC(C)(C)C [Example 79, BOC--D-Nval--N(n-Bu)Gly--Arg--pNA.HBr]	360 nanomoles of split product H--
CC(C)C[C@@H](NS(=O)(=O)c1ccc2ccccc2c1)C(=O)NCC(=O)N[C@@H](CCCNC(=N)N)C(=O)Nc1ccc([N+](=O)[O-])cc1 [Example 80, β-Naphthyl--SO2 --D-Leu--Gly--Arg--pNA.HBr]	635 nanomoles of split product H--
CCCC[C@@H](NC(=O)c1ccc(N)cc1)C(=O)NCC(=O)N[C@@H](CCCNC(=N)N)C(=O)Nc1ccc([N+](=O)[O-])cc1 [Example 81, 4-NH2 --Bz--D-Nleu--Gly--Arg--pNA.2HBr] (H-[4Abz][dNle]GR-pNA)	385 nanomoles of split product H--
Cc1ccc(COC(=O)N[C@H](CC(C)C)C(=O)NCC(=O)N[C@@H](CCCNC(=N)N)C(=O)Nc2ccc([N+](=O)[O-])cc2)cc1 [Example 82, 4-Me-Cbo--D-Leu--Gly--Arg--pNA.AcOH]	1380 nanomoles of split product H--
CC(C)C[C@@H](NC(=O)OCc1ccc(Cl)cc1)C(=O)NCC(=O)N[C@@H](CCCNC(=N)N)C(=O)Nc1ccc([N+](=O)[O-])cc1 [Example 83, 4-Cl--Cbo--D-Leu--Gly--Arg--pNA.AcOH]	1365 nanomoles of split product H--
N=C(N)NCCC[C@H](NC(=O)CNC(=O)[C@@H](Cc1ccc(OCc2ccccc2)cc1)NC(=O)OCc1ccccc1)C(=O)Nc1ccc([N+](=O)[O-])cc1 [Example 85, Cbo--D-Tyr(OBzl)--Gly--Arg--pNA.HBr] (Cbz-[dY](Bn)-Gly-Arg-pNA)	580 nanomoles of split product H--
COC(=O)N[C@H](Cc1ccc(O)cc1)C(=O)NCC(=O)N[C@@H](CCCNC(=N)N)C(=O)Nc1ccc([N+](=O)[O-])cc1 [Example 86, CH3 O--CO--D-Tyr--Gly--Arg--pNA.AcOH] (Moc-[dY]-Gly-Arg-pNA)	610 nanomoles of split product H--
CC(C)(C)OC[C@@H](NC(=O)OCc1ccccc1)C(=O)NCC(=O)N[C@@H](CCCNC(=N)N)C(=O)Nc1ccc([N+](=O)[O-])cc1 [Example 87, Cbo--D-Ser(OtBu)--Gly--Arg--pNA.AcOH] (Cbz-[dS](tBu)-Gly-Arg-pNA)	146 nanomoles of split product H--
N=C(N)NCCC[C@H](NC(=O)CNC(=O)[C@@H](CO)NC(=O)OCc1ccccc1)C(=O)Nc1ccc([N+](=O)[O-])cc1 [Example 88, Cbo--D-Ser--Gly--Arg--pNA.AcOH] (Cbz-[dS]-Gly-Arg-pNA)	165 nanomoles of split product H--
COC[C@@H](NC(=O)OCc1ccccc1)C(=O)NCC(=O)N[C@@H](CCCNC(=N)N)C(=O)Nc1ccc([N+](=O)[O-])cc1 [Example 89, Cbo--D-Ser(OMe)--Gly--Arg--pNA.AcOH] (Cbz-[dS](Me)-Gly-Arg-pNA)	170 nanomoles of split product H--
